A collection of fitness landscapes (doi:10.1038/s41467-024-54723-y)
The full ranking holds about 18,000 sequences; the median of “TetR repression strength (sort-seq, GFP reporter)” is about 0.23, and the highest 2% start at about 0.68. Some of the results follow.

biological target: TetR (class B, Tn10) (UniProt P04483); test: TetR repression strength (sort-seq, GFP reporter) (relative to tetO2 = 1); higher = stronger repression; conditions: E. coli
In short: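 Three independent transformations of E. coli SIG10-MAX were made with a low-copy plasmid library randomizing eight operator positions between a constitutive promoter and sfGFP, with constitutive TetR. Following 5 h at 37 °C in LB plus 50 µg/mL chloramphenicol, 10^6 cells went through FACS into 13 fluorescence bins, and each bin was sequenced by Illumina. Repression strength was defined as the top bin index plus one minus the read-weighted mean bin, divided by the unaltered operator's value. Averages included only members reaching ≥30 reads in all replicates with a CV ≤0.5.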

Sequence of UniProt P04483 (P04483 whole entry): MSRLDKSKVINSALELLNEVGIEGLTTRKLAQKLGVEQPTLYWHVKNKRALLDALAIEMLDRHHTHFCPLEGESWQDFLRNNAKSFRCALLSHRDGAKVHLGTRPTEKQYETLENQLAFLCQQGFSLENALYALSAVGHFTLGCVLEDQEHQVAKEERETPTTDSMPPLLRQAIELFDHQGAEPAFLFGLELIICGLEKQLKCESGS

Sequence | TetR repression strength
TCCCTGGCAGTAATAGAGA | 0.337
TCCCTGGGAGTGTCCGAGA | 0.663
TCCCGGGCAGTGGTCGAGA | 0.16
TCCCTTGGAGTGGCAGAGA | 0.177
TCCCAACTAGTTGGTGAGA | 0.297
TCCCTGTTAGTTCGGGAGA | 0.196
TCCCCAATAGTCCTGGAGA | 0.198
TCCCGGGGAGTAAATGAGA | 0.244
TCCCCTGCAGTAGTGGAGA | 0.136
TCCCACATAGTGGGGGAGA | 0.101
TCCCTACTAGTGGATGAGA | 0.527
TCCCGGGGAGTAGGCGAGA | 0.264
TCCCGAAGAGTAATAGAGA | 0.194
TCCCGCAAAGTAAGCGAGA | 0.115
TCCCCCGCAGTGGGTGAGA | 0.141
TCCCCGGTAGTTCTTGAGA | 0.316
TCCCGGTCAGTGACAGAGA | 0.666
TCCCCAATAGTAGATGAGA | 0.672
TCCCTATAAGTTATTGAGA | 0.433
TCCCACGAAGTGAGTGAGA | 0.104
TCCCGATGAGTTGGCGAGA | 0.119
TCCCGGGTAGTCTCTGAGA | 0.279
TCCCTGGTAGTATTTGAGA | 0.273
TCCCGTCTAGTTTCCGAGA | 0.169
TCCCGAGCAGTAAGGGAGA | 0.228
TCCCGGAGAGTTAGCGAGA | 0.253

Sequence | TetR repression strength
TCCCTTCGAGTCGACGAGA | 0.0548
TCCCATGGAGTGTCCGAGA | 0.0607
TCCCCTTTAGTAGGGGAGA | 0.145
TCCCTCAGAGTCGGAGAGA | 0.485
TCCCTCTCAGTGTACGAGA | 0.509
TCCCTAACAGTGTGCGAGA | 0.366
TCCCAGGAAGTGTCGGAGA | 0.141
TCCCGGACAGTTAGGGAGA | 0.208
TCCCGCGAAGTGAAAGAGA | 0.138
TCCCCGACAGTAGTGGAGA | 0.208
TCCCAGCTAGTGTCGGAGA | 0.162
TCCCGTCTAGTTCTAGAGA | 0.36
TCCCAGGGAGTGGAGGAGA | 0.0995
TCCCAGAGAGTTGGTGAGA | 0.381
TCCCCCCAAGTACGAGAGA | 0.263
TCCCAGCGAGTAGACGAGA | 1.03
TCCCTGAGAGTTGGGGAGA | 0.204
TCCCCGTCAGTACGTGAGA | 0.117
TCCCAAACAGTGGGTGAGA | 0.224
TCCCGACAAGTGCCTGAGA | 0.0444
TCCCGTTGAGTTCACGAGA | 0.104
TCCCGTTGAGTAGAAGAGA | 0.061
TCCCTACGAGTTTGGGAGA | 0.292
TCCCTGCCAGTGAGCGAGA | 0.0833
TCCCTTTGAGTGGGCGAGA | 0.247
TCCCTGGGAGTCACAGAGA | 0.212

Sequence | TetR repression strength
TCCCGAGGAGTCTCTGAGA | 0.172
TCCCCAATAGTGCATGAGA | 0.139
TCCCGCTAAGTGGAGGAGA | 0.0766
TCCCCGTGAGTTAAGGAGA | 0.217
TCCCCTATAGTAGCTGAGA | 0.3
TCCCCGCCAGTGCTAGAGA | 0.164
TCCCACCGAGTTTTGGAGA | 0.347
TCCCGGTGAGTGGCTGAGA | 0.436
TCCCTTACAGTACATGAGA | 0.197
TCCCCAAGAGTAGCTGAGA | 0.0943
TCCCGAGAAGTACTAGAGA | 0.207
TCCCAGGGAGTAAACGAGA | 0.422
TCCCCAGAAGTGGTGGAGA | 0.326
TCCCCCCAAGTCGTGGAGA | 0.234
TCCCGTCTAGTATGAGAGA | 0.244
TCCCTTACAGTAGGGGAGA | 0.095
TCCCGCGAAGTAGGGGAGA | 0.104
TCCCGGGTAGTCAGCGAGA | 0.425
TCCCCGCTAGTTTAGGAGA | 0.158
TCCCGGACAGTAGGCGAGA | 0.0814
TCCCTCATAGTGAAGGAGA | 0.477
TCCCCGTAAGTGGTTGAGA | 0.155
TCCCCTCAAGTTCGGGAGA | 0.204
TCCCTGTCAGTTAAAGAGA | 0.383
TCCCAAGTAGTGTGGGAGA | 0.256
TCCCATTTAGTTCGGGAGA | 1.09

Sequence | TetR repression strength
TCCCGCTAAGTTAACGAGA | 0.407
TCCCATCGAGTTATGGAGA | 0.575
TCCCGACGAGTCGGCGAGA | 0.0838
TCCCTATTAGTCAGGGAGA | 0.144
TCCCATGCAGTGGACGAGA | 0.0613
TCCCATTTAGTCAGAGAGA | 0.321
TCCCCCTTAGTTGTCGAGA | 0.307
TCCCTTGAAGTACTGGAGA | 0.228
TCCCCGGGAGTGTTCGAGA | 0.0396
TCCCGAAGAGTTCGCGAGA | 0.0791
TCCCACGTAGTGTTGGAGA | 0.155
TCCCTATCAGTGCGAGAGA | 0.452
TCCCGCTAAGTCGAGGAGA | 0.118
TCCCGAGCAGTCAAGGAGA | 0.329
TCCCATTAAGTCAGGGAGA | 0.2
TCCCCATAAGTATTGGAGA | 0.32
TCCCACGTAGTGTCGGAGA | 0.134
TCCCCAGGAGTTTCTGAGA | 0.59
TCCCTTGGAGTAGGGGAGA | 0.274
TCCCGAAGAGTGCTCGAGA | 0.813
TCCCCGATAGTTGAGGAGA | 0.0265
TCCCGGCCAGTGTATGAGA | 0.227
TCCCCTATAGTGCAGGAGA | 0.217
TCCCGGCGAGTTAGTGAGA | 0.343
TCCCTCGGAGTCCCCGAGA | 0.416
TCCCTCTAAGTGCTTGAGA | 0.303

Sequence | TetR repression strength
TCCCCGGGAGTAGATGAGA | 0.0346
TCCCATAGAGTGGGGGAGA | 0.137
TCCCCTTAAGTACAGGAGA | 0.72
TCCCAGCGAGTAGCCGAGA | 0.216
TCCCCGGCAGTAGATGAGA | 0.195
TCCCTCGTAGTAGTAGAGA | 0.204
TCCCCGACAGTGTGCGAGA | 0.104
TCCCAAACAGTTCCTGAGA | 0.221
TCCCGTTGAGTAACTGAGA | 0.583
TCCCCGGGAGTTGCGGAGA | 0.232
TCCCATGCAGTTCGAGAGA | 0.14
TCCCCGGGAGTCCATGAGA | 0.227
TCCCTGCCAGTTGTGGAGA | 0.217
TCCCCATGAGTGTGCGAGA | 0.0532
TCCCAGTAAGTGGCCGAGA | 0.111
TCCCGTATAGTGTGGGAGA | 0.00296
TCCCAAGGAGTCGTTGAGA | 0.119
TCCCACAAAGTCGAAGAGA | 0.275
TCCCATCCAGTGTAGGAGA | 0.144
TCCCGAAAAGTGCGCGAGA | 0.375
TCCCCGGGAGTAGGGGAGA | 0.3
TCCCCGTTAGTATGGGAGA | 0.0862
TCCCGGGGAGTACGAGAGA | 0.451
TCCCCCGAAGTGAACGAGA | 0.193
TCCCTCCGAGTTGTTGAGA | 0.127
TCCCGATAAGTTATGGAGA | 0.375

Sequence | TetR repression strength
TCCCGTGAAGTGCGTGAGA | 0.199
TCCCTTCTAGTAGCCGAGA | 0.434
TCCCTTCGAGTAATGGAGA | 0.299
TCCCGAGAAGTTCTCGAGA | 0.163
TCCCCTCAAGTCGGTGAGA | 0.032
TCCCTTTTAGTATTAGAGA | 0.347
TCCCTGCGAGTCAGTGAGA | 0.0497
TCCCCGGTAGTTCGAGAGA | 0.0814
TCCCTCGTAGTGCAGGAGA | 0.217
TCCCAGAGAGTTGCAGAGA | 0.326
TCCCAGGGAGTTGTTGAGA | 0.213
TCCCGCCGAGTCGAAGAGA | 0.242
TCCCTGGTAGTCGGCGAGA | 0.208
TCCCGAACAGTATCGGAGA | 0.194
TCCCCATCAGTTGTTGAGA | 0.335
TCCCGTTGAGTAGTAGAGA | 0.223
TCCCGACAAGTGGGGGAGA | 0.183
TCCCTTGGAGTACTGGAGA | 0.174
TCCCGTCGAGTGTTGGAGA | 0.139
TCCCGGGTAGTCCGGGAGA | 0.112
TCCCTAAGAGTGATTGAGA | 0.486
TCCCAGGGAGTGAGCGAGA | 0.231
TCCCGTCAAGTGCAAGAGA | 0.394
TCCCTGACAGTCTATGAGA | 0.21
TCCCATTTAGTGGTGGAGA | 0.218
TCCCTCAGAGTGCCGGAGA | 0.563

Sequence | TetR repression strength
TCCCTTCGAGTTCTGGAGA | 0.328
TCCCTCGGAGTCCACGAGA | 0.23
TCCCGTTGAGTGAATGAGA | 0.467
TCCCTGGTAGTGACTGAGA | 0.0995
TCCCTGGAAGTGGTAGAGA | 0.163
TCCCACAGAGTAACTGAGA | 0.348
TCCCCTACAGTGGACGAGA | 0.0338
TCCCTTTTAGTCTTGGAGA | 0.0784
TCCCCTTAAGTTTGAGAGA | 0.42
TCCCGTCCAGTGGGGGAGA | 0.163
TCCCCAACAGTGAGTGAGA | 0.185
TCCCGCGCAGTGATCGAGA | 0.261
TCCCTTTAAGTGTCTGAGA | 0.27
TCCCACTGAGTCTTGGAGA | 0.0452
TCCCCGCGAGTCCGGGAGA | 0.119
TCCCGGGGAGTTAGCGAGA | 0.135
TCCCCTAAAGTGTTTGAGA | 0.416
TCCCATGCAGTAGTCGAGA | 0.183
TCCCGGGAAGTGAGTGAGA | 0.202
TCCCTTACAGTCTACGAGA | 0.405
TCCCCGTAAGTTTGAGAGA | 0.211
TCCCATGCAGTGGCCGAGA | 0.111
TCCCTGTTAGTGGGAGAGA | 0.189
TCCCAAAGAGTCAGAGAGA | 0.192
TCCCAGTCAGTAGGTGAGA | 0.196
TCCCTAGCAGTCCTCGAGA | 0.336

Sequence | TetR repression strength
TCCCTCGCAGTGGTCGAGA | 0.284
TCCCGACTAGTAATTGAGA | 0.162
TCCCGGCCAGTCGTAGAGA | 0.276
TCCCCTCCAGTCGACGAGA | 0.412
TCCCTGGAAGTCCCAGAGA | 0.0672
TCCCTCAGAGTAGAGGAGA | 0.193
TCCCGCGAAGTGAATGAGA | 0.194
TCCCTAATAGTTCTTGAGA | 0.104
TCCCATACAGTTATAGAGA | 0.226
TCCCTGAGAGTGTCAGAGA | 0.257
TCCCATCAAGTATAGGAGA | 0.00518
TCCCTTTGAGTCGTAGAGA | 0.408
TCCCTTAAAGTCACGGAGA | 0.203
TCCCCGTAAGTGTTAGAGA | 0.236
TCCCTCTCAGTTATAGAGA | 0.716
TCCCAGGTAGTTCGCGAGA | 0.256
TCCCAGATAGTTGAGGAGA | 0.31
TCCCTGGCAGTGGCAGAGA | 0.352
TCCCAGCTAGTGTAGGAGA | 0.182
TCCCTTCTAGTGCTAGAGA | 0.379
TCCCGACAAGTGTAGGAGA | 0.144
TCCCGTACAGTATTCGAGA | 0.109
